We go through 93 sequences from paper PMC10726135.

This is one part of the list. At the low end of the ranking the order means little. Measured with an extract: partners may take part in the binding.

In the assay the target is T1, HNF4alpha8 (COS-7 nuclear extract) (UniProt P41235-5).
T1 sequence: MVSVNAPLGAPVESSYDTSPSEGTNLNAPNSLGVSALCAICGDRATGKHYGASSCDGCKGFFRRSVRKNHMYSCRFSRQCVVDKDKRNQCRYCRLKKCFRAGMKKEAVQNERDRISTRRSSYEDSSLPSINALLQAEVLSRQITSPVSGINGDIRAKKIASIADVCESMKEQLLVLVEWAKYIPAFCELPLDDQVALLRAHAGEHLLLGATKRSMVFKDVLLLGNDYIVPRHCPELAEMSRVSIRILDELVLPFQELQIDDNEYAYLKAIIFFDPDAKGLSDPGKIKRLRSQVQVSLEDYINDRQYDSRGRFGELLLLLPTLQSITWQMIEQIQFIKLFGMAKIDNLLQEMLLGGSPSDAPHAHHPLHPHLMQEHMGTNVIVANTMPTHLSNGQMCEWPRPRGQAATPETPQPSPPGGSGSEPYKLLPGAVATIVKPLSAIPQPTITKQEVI
Nature of the assay: protein-binding microarray. As to conditions: COS-7 nuclear extract on double-stranded Agilent 4x180k PBM; binding buffer, salt, pH and temperature not given; high values mean tight binding; double strand, one strand shown; sequences stand for … in …GCCTAGGGAGATTAGAGTATCGGTCGA
For the sequence CTTTGCCTGCCCATCCCGTGGACTCTGCCT, the binding signal (log2 normalized intensity) was found to be 4.23. As to CTACATTAGCAGCGCCACCAACCATAATTT, the binding signal (log2 normalized intensity) worked out at 2.5. For GTTTTTTCTTATTTGCTCTCCTGAGGCAAG, the binding signal (log2 normalized intensity) came out at 0.989. With GCTACACGGGCCTGAAAACTGGAGGCCGCG the figure was -1.3. The value for CAGCTGCTGGTCAAAGGGCATTACTTGCTG was 3.81; that for ATGTTTTTGTGTGAGGGAGAAGTTTTATGG was 1.58. With TAGCTTTAGCCGGACTTTGTCCTTTGATTT the figure was 7.5. As for TCCTCTCTGAAGGATTTAAATGGAATGACC, the binding signal (log2 normalized intensity) was 2.77.

Turning to AAAGGACATCTCCGAGTCCAGGGATAACAG, the binding signal (log2 normalized intensity) is 0.428. The value for AAGGTCACTTCGCATTTCCAAAAGAAGAAT was -1.28. Turning to AGTCATGTCTTCATGCTTTCAGCCTCTCTG, the binding signal (log2 normalized intensity) worked out at 0.0037.

For the sequence GAGCGGCCTTCGCACCTGCCTGTCTCACCT, the binding signal (log2 normalized intensity) was -0.885. On to CACTTCTCACATCACGTCTCTCTGGGGCCC, for which the binding signal (log2 normalized intensity) was 0.42.

On to CTTCGTCCTTGCCCCTGGCTGGGCCCTGAC, for which the binding signal (log2 normalized intensity) amounted to 0.733. With TCAAAGGTGAGTGGGGAAAGAGCCCCTTTG the figure was -1.31.

With CATGCCTAGGTAAGCCCACTAGGGAATGAA, the binding signal (log2 normalized intensity) was -1.33. In the case of GAAAAGAAGGATAGAGAGTTGGGAGGGAAC, the binding signal (log2 normalized intensity) is -1.29. With AAAGACTTGCTCATTGATGAGTGACCTTTG the figure was 7; with TCAGCCTTCTCCGCGGCGGGCCCTCGACCT, 0.757.

On to CAGCGACTTGGGAGGCTGAGGTGGAAGGAT, for which the binding signal (log2 normalized intensity) was -1.16. With TCACCTACTGACCTTTCTCCCTTTTCACAG, the binding signal (log2 normalized intensity) worked out at 3.5. Regarding TGCCCCAGGAATGCCTTTTCTTTCATGTTG, the binding signal (log2 normalized intensity) came out at 1.3.

Regarding AATAGATGGCGCAGCGGGTCAATTAGCTTG, the binding signal (log2 normalized intensity) is 1.09.

On to GCTAGGCAGGCTCAGAACTACCAATGTTTA, for which the binding signal (log2 normalized intensity) is -1.37. For AGGCAAAGGTGTCAGGACCTTTCTTTATGG, the binding signal (log2 normalized intensity) is 0.451.

For GTAAATAACATTGCTGACCCCCTACATAGA, the binding signal (log2 normalized intensity) is 4.34.

As to TGCAATGAAAGTCCACTTGTCTGGCCTTCC, the binding signal (log2 normalized intensity) came out at 1.99. Take CCTCTTTCCTGCAGGCCCATCTGGGACTTC: the binding signal (log2 normalized intensity) was 1.66. As to TTGGTTCAAGAGAAATGTTATCTCAGTAGA, the binding signal (log2 normalized intensity) is -0.659.

Turning to CAAGGGCATTTGCGTAGGCTGTCAGAGTGC, the binding signal (log2 normalized intensity) was -1.22. With CATGCTATGCTCTCTCTCCACCTGGAGGGA the figure was -0.886; with ATTTTACTACTAACCGAAAGTCTGACCCTT, 5.19; with TCTAAGGCAAAACACCCCTTTCACTTCTTC, 0.915.

Consider CAACTTTCTCCTCCAGGACCTTGCCCTTTA, for which the binding signal (log2 normalized intensity) came out at 5.41.

As to ACAAGGAGATGGCCCCTCTCTTTTATTATA, the binding signal (log2 normalized intensity) was 0.411. For TAAGGTTTCTCAGCCCCATCCCCCAATACA, the binding signal (log2 normalized intensity) worked out at 5.76. On to AGACAGAAGTAAAACAGGTAGAGAGCTGTC, for which the binding signal (log2 normalized intensity) was -1.22.

On to GTCTTACTGATGGGCAAAGTTTTCAAGAAT, for which the binding signal (log2 normalized intensity) was 1.24. With AGTGGCCTGAGGCAGCCAGTGAGTGCAGCA, the binding signal (log2 normalized intensity) was -1.07. Turning to CAGAGTTCACCCCATTTTGTCCCTCCCTGC, the binding signal (log2 normalized intensity) is 3.92. For CCATCTTGTGGCCATGCTTAGGACTGCAGG, the binding signal (log2 normalized intensity) is -0.417. The value for TCTGCTGTACATATTTGCCAAGTGATAAGG was 1.01; that for AAGAAGCTCTGGCGCCATCTGGTTTCTTTA was -1.02. With TACACAGCAGCTTTAGTCAGAGATTTCTTT, the binding signal (log2 normalized intensity) was -1.21. For TGTGAGCCAATTCAGCAAACAAAGGCACTT, the binding signal (log2 normalized intensity) is -0.957. As to GGCGTGCTGTGTACTTTGAACTGAAGGATA, the binding signal (log2 normalized intensity) was 5.65. With AAAGCCCAAGGGATGTCCATGAGGAGTTAA, the binding signal (log2 normalized intensity) was -1.22. The value for TAAGGACAACCGGTAGCACAACATACTTGG was -1.33.

AGGGGCACTCTCTGTTATCAGACACAAGAA: the binding signal (log2 normalized intensity) is -1.25. With CAGGAATGTTCAAGAAGTTCCAAAGGCCAG the figure was 2.27; with ACCAGAACTTCTTATCACTTGGTGGACATG, 1.66. With GGGCAGCAAACCTACCTGAACTTTGCCCCA the figure was 8.83; with TCAAAGGTCAAAGGGCATAGCCTCAGGGAC, 5.77; with CTGCTTCCAAAGAGCTCAACCTGTGAAAAT, -1.36. ATCAAATCCTAACATGCTGCAGGCATTTCT: the binding signal (log2 normalized intensity) was -1.11.

Consider TCAAGCTCAATGCAACCAGTTGGTGGGTCA, for which the binding signal (log2 normalized intensity) was 1.44.

CACTCTCTGGGTTAAACGTGCAGCAATAGG: the binding signal (log2 normalized intensity) worked out at 0.84. With TTTCTCCCCTGACTACCAGCCAGTAGGAGT the figure was 1.66. The value for AATTTAGATACTCACCAGTGGGCCCAGAGC was -1.38; that for TTGAGAACTTTGACACCGAGGCATATTTAA was 1.3; that for CCGAGAATGCAGCCTTATCTTCCAGCCCTG was -1.31. CATGACCCTTTGCAGGTGGGAGAGGGGGAC: the binding signal (log2 normalized intensity) is -1.01.

For the sequence GTCCAAGAAAAAGGAGCAGATGGCTAGTGA, the binding signal (log2 normalized intensity) was -1.36. As to TTCTAGGTAGATAAGGGAGTTTCAGAGGAC, the binding signal (log2 normalized intensity) was -1.35. Take GACTTTAATCTCCAAGTAACTGAAACTACA: the binding signal (log2 normalized intensity) was -1.31. As for GGGGTCAGATAATTCTTTGCTGTGGTAGGC, the binding signal (log2 normalized intensity) worked out at 1.74. As for GCTTTAAAATGGGTACAGACAATAGGAAGA, the binding signal (log2 normalized intensity) was -1.27. GGAGGCCGCGACAAGCGTCGCTGAGTGGAG: the binding signal (log2 normalized intensity) is -1.32. With ACACACGTTCCTGACAGACTGCCATTCCAG the figure was -1.37. In the case of CTGGCATCTGGTCAGGGGTCAAGAAGCTCT, the binding signal (log2 normalized intensity) turned out to be 3.11. With ACATACTTGGAGACAGTCACTCCCACCCTT the figure was 2.5.

Take GGTGACCGGACACAAAAGCTGCTGCCAAGC: the binding signal (log2 normalized intensity) is -1.21. Consider CTTATCTTTGACCTTACCAGCCCACTCTTA, for which the binding signal (log2 normalized intensity) was 1.99. The value for GGGTCAGAACCTGCCCATGACCTTTGGACT was 10.8. Turning to CTGCTAAACCAACACCAGCAACCGCCTACC, the binding signal (log2 normalized intensity) was -1.31. GGATTCTGGCTAAACCAGCCTAACAGGATT: the binding signal (log2 normalized intensity) is -1.37. For the sequence ATTTTTCCCTTTGATATTTATCAAGATGAA, the binding signal (log2 normalized intensity) came out at 0.842. In the case of CTTGTTTTGGGGGTTGGTATTACAAAGCAA, the binding signal (log2 normalized intensity) was determined as 0.688. On to GACCTGACACCCGCTGGCGCCATCCAAAGG, for which the binding signal (log2 normalized intensity) is -1.21. Regarding GAGTTAACTATTGAGACTTTGGGGTTTTAT, the binding signal (log2 normalized intensity) amounted to 0.851.

With CAGCTCTCTCCCTTATCTGAATTCCAGCAT, the binding signal (log2 normalized intensity) is -1.19.

For GATCAGGGCCCCTTCCTGGGGGAGTTTCCT, the binding signal (log2 normalized intensity) was -1.35. In the case of AGGAGTCCACTGTGTTCTTGTTTGCTAAGT, the binding signal (log2 normalized intensity) is 1.85.

As to TCCCAGCCCCTAGCCCTAAGCAGGCACATT, the binding signal (log2 normalized intensity) was 2.64.

Take TTCTGATTTGATAAGATGTGTAAAACACAA: the binding signal (log2 normalized intensity) amounted to 0.123.

With GGATGGCCATTGTTCATACTGCAGCTCTGC, the binding signal (log2 normalized intensity) is -1.29. For the sequence TTGGTCTGCTGAGTCTCATGATTAGATTGA, the binding signal (log2 normalized intensity) is 1.1. With AAGGCTGTTTGCACCGTGTGCTTTGTAGCA the figure was 0.24; with ACTTTGACCTAGAAGCCAGGGACCAGGAAG, -0.796.

On to TTTGGGCATACAAAACAACCACTCTTATCA, for which the binding signal (log2 normalized intensity) was -1.41. As to ATCAGAGATGGATTACATGGGAGATAGAGC, the binding signal (log2 normalized intensity) is -1.23. Regarding GATAAGGGCCACAGATGGCCTCACTCGGTG, the binding signal (log2 normalized intensity) was -1.21. Regarding AATTTGTCTAGCGCAAATGATCAAAGGTTG, the binding signal (log2 normalized intensity) was 4.39.
